Data: the supplement of paper PMC10126150
Sequences with one replicate were seen in a single cluster, so their values are uncertain.

Tested on: ATP
Assay: switch fluorescence ratio, 500 uM ATP over buffer (Cy3 cluster intensity, sum of 5 cycles each) (fold (ratio)); higher = stronger signal-on switching upon ATP binding; sequences stand for … in TCGTCGGCAGCGTCAGATGTGTATAAGAGACAGTTTTTTTTTTTTTTTTTTTTTTTTT…TC
Conditions: aptamer strand: ATP DNA aptamer (quencher-CACCTGGGGGAGTATTGCGGAGGAAGG + anchor), 100 nM annealed; ATP concentration: 500 uM; one replicate
Procedure, shortened: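 Five buffer/ATP imaging cycles were run on Cy3-labelled switching-strand clusters on a modified Illumina MiSeq flow-cell, with NaOH stripping and re-annealing between cycles. In each cycle, clusters annealed to 100 nM quencher-labelled ATP aptamer were imaged in selection buffer, then after 15 min with 500 uM ATP at 22 °C. Per cluster, the fluorescence ratio is summed target-cycle over summed buffer-cycle Cy3 intensity, averaged per switch-domain sequence. Only clusters within 100-1000 RFU were kept.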
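Also: ATP exposure 15 min at 22 °C before imaging.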

Sequence | switch fluorescence ratio
CAAAGGGT | 1.01
GGTACCTCGT | 1.03
GGAAAGCGCA | 1.02
TGTCCGATGC | 1.72
ATCAGTCAAT | 1.15
CATAACCGTG | 1.04
TTGACTGCAT | 1.2
TGTAGCCAAA | 1
CTGGCTTACT | 1.13
GATAATGCTC | 1.08
CGCTTTAAAA | 0.945
AGGGAAGGTA | 1.01
TTCATAAGCA | 0.995
GGGAGTAGAG | 0.993
AGGACGAGTC | 0.993
GAATGAGGAA | 1.04
TGCGGGGGCC | 0.991
GCAGCAAGTA | 1.65
AACCATCTGA | 1.03
TTTCACGCCG | 1.05
CGGTAAAGTC | 0.988
TAACGAGAGG | 0.961
CGTAGTTGAT | 1.05
GAGTCATATA | 1.04
GTTAGTTTGT | 1.01
AATGAACTGT | 1

Sequence | switch fluorescence ratio
TGGTTTAC | 1.1
TTTGCGGTGT | 1.06
ACGCTGTGGG | 1.02
AGGTGCGGTG | 1.02
AGGCAATGCA | 1.11
TAGGGCTTGG | 1
GTTCTCTAGG | 1.02
TCGATTATTA | 1.02
TTCGTGAGCC | 0.978
AGTCAACGTA | 0.978
AATCCGGTTA | 1.01
AACTGCCTGG | 1.01
CTTAGCTGGC | 1.04
GCTTTTCAGG | 1.03
GTTTTGTGA | 1.02
AACGACAGCG | 0.953
GGGCTTCTTA | 0.996
ACTATGGTAC | 1.1
CCCGGCTGAA | 1.05
AGCACGGTAG | 0.973
ACGCGGTGTC | 1.06
TAAAATTTCC | 1
TACTTCACTA | 1.29
GACTCTT | 1.04
ATTACATAGT | 1.03
GATAGAACGC | 1

Sequence | switch fluorescence ratio
ATGCGTGACT | 1.04
GGAACCGATC | 1.98
TAAGCTTGTT | 0.992
TGGGATAAAT | 0.97
AAGGTGAATA | 0.973
CCTACTTTGT | 0.985
AATCCCCAA | 1.09
CCACTTTTAA | 1.03
AAGGAAGGGC | 0.984
CACTGGACTA | 1.15
CTAGCCCTG | 1
TTAACGAGAG | 1.04
TGCGAGGTGC | 1.26
GATATCACGT | 0.992
AAGTTTTCAC | 1
TATGAGGCAA | 2.92
AGGCAGGCGC | 1.09
CGTGTCGTGT | 0.988
CTTCCTCGGT | 3.01
TAAATGGATT | 0.945
CGAAATCGCT | 0.991
GCGCATTAAT | 1.03
GTCCCCGTGT | 1.02
TGTAGCTTCG | 0.995
CCGCGAACAG | 2.57
GCTCAGGTGG | 1.07

Sequence | switch fluorescence ratio
TGAAATAGTT | 0.962
TGGATAGCGG | 0.973
GATCATCGCC | 1.03
TGGAATCGTC | 0.986
TACCGGACCT | 1.08
TTTGGGAGCC | 1.01
TAAGACGAAA | 1.02
ACCACGGCGG | 1.03
AATCGACGTG | 0.96
GGTGCTGCTG | 0.964
ATGTAGCTTC | 1.13
CTCAGGGTCG | 1.01
ACAGTGTCAC | 0.964
TGGGAGCGGC | 1.01
ATCGTCTCAA | 1
GAGTTATGCC | 0.889
GACATATTGT | 1.04
TAAACCGATA | 1.1
TTTTACGTGT | 1.04
AGGCAGCAGC | 1.06
ACTTAATTA | 1.04
ATGGGAATCT | 1
GCTTTTCCAC | 0.971
CGCTCTCGA | 1.01
ATGATTCGTC | 1.01
CACAAATCAA | 1.03

Sequence | switch fluorescence ratio
GCGGAAGAGT | 0.921
ATAGTATTCG | 0.968
TTGGGGTCGC | 0.965
CTGGGACTTT | 0.993
ACAGTGTAT | 1.05
GCTCGGATCG | 0.954
CGAATGCGTC | 1.04
AACGAGGCTA | 1.33
AGTGTGTGTT | 1.06
ATTGGCTTCT | 1
TAAAGGTTA | 1.01
TAAACACGTT | 1.02
GGTTCGTGCA | 1.02
TCAATAGGGT | 0.994
AAGTAGTCC | 0.982
GGTACCAAAC | 1
TATCAGACGA | 1
GCTGCCGGCG | 0.995
TATGTTTACG | 1.06
CCTAGAACCT | 1.02
CCGCGGAAG | 1.04
TCCTGACGGG | 1.01
GTCGGGAA | 1.03
GCGCTTGCAA | 1.03
ATTAAGTGAG | 1.03
GGTGATAAAC | 1.01

Sequence | switch fluorescence ratio
TCTTGTAAAA | 0.971
TTAACTTGGC | 1.19
CTAAACGGCC | 1.04
TAAAGCTGGG | 0.997
GCCGAACTGG | 0.991
CTCCACGAGA | 1.14
TACATACCCT | 1.06
AGGTGCGAT | 1.06
GGAGTACAGC | 1.08
GGTCACGCAA | 2.91
GCGACAAGGG | 1.02
TCTTCGTTGA | 0.985
AAAGAAGGCC | 1.05
ATGGGAGAGC | 0.947
TACCGCACTT | 2.79
TGCTTTTAG | 0.988
GACGTAGAGT | 0.988
CCGTTCATTT | 0.97
CCCCTTGAGT | 1.01
ATATAACGTG | 0.992
AGGTTAGTAC | 1.06
TATGCTCATC | 0.978
GTAAAACGCC | 1.07
